Consider 25 compounds from PubChem BioAssay AID463173 (ICCB-Longwood Screening Facility, Harvard Medical School, 2010).

In all, about 52,000 compounds went through this assay and about 4,300 (8.3%) were called active. Cut-off read from the data, not from the text of the source: active = survival mostly below about 52% (no sharp cut-off); inactive = mostly above about 56%. This is one part of the list.

In the assay the test system is DeltatarO mutant. As to the kind of experiment: growth inhibition of S. aureus wild type versus tarO mutant, primary screen, teichoic acid synthesis inhibitors, RN4220, OD600 (AID 463173). Particulars: OD600, 18 h, active compounds read low, screened at 18.75 µg/mL (by protocol).
`COc1ccc(/C=C/C(=O)Nc2ccc(Cl)c(Cl)c2)cc1OC`: the survival is active: 18%.

As to `CCOc1ccc(NC(=O)c2cc(CN3CCCC3)on2)cc1`, the survival was inactive: 117%.

As for `Cc1c(C(=O)NCc2ccc(F)cc2)sc2nc3n(c(=O)c12)CCC3`, the survival is inactive: 78%.

Consider `CC(=O)Nc1ccc(NC(=O)Nc2sc3nc4n(c(=O)c3c2C)CCC(C)CC4)cc1` (stereo not given), for which the survival was inactive: 67%.

As to `COc1ccc(-c2ccc(=O)n(CC(=O)Nc3ccc(N(C)C)cc3)n2)cc1`, the survival is inactive: 90%.

`O=C(Cn1nc(C(F)(F)F)c2c1CCCC2)Nc1ccc(F)c(Cl)c1`: the survival is inactive: 62%.

In the case of `Cc1ccc(NC(=O)/C(C#N)=C/c2cn(CC(=O)NCc3ccco3)c3ccccc23)c(C)c1`, the survival was inactive: 76%.

Consider `CCC(=O)N1CCc2cc(CNS(=O)(=O)c3ccc(Cl)s3)ccc21`, for which the survival was inactive: 93%.

In the case of `Cc1cccc(CN2C(=O)c3ccccc3Sc3ccc(C(=O)NCCc4ccccc4)cc32)c1`, the survival was inactive: 91%.

Turning to `Cc1cc(Nc2cccc(F)c2)n2nc(-c3ccco3)nc2n1`, the survival is inactive: 89%.

As for `CCc1cccc(CC)c1NC(=O)Cc1csc(C)n1`, the survival was active: 42%.

For the compound `O=C(Nc1ccccc1Cl)NC1(C(=O)NCc2cccnc2)CCCCC1`, the survival is inactive: 81%.

As for `CCOc1ccc(C(=O)Nc2ccc3nc(SCC(=O)N(C)c4ccccc4)sc3c2)cc1`, the survival is inactive: 71%.

On to `CCOC(=O)c1cc(-c2ccc(OC)cc2)n(CCC(=O)Nc2ccc(OC)cc2OC)c1C`, for which the survival is inactive: 102%.

Take `CCOc1ccc(/C=C/c2nc3ccccc3n2S(=O)(=O)c2cccc(Cl)c2)cc1`: the survival is inactive: 63%.

Consider `COc1ccccc1CNC(=O)c1ccc(Nc2nc3ccccc3n3nnnc23)cc1`, for which the survival was inactive: 49%.

For the compound `COC(=O)c1ccc2c(=O)n(CCCCCC(=O)NC(C)C)c(=O)[nH]c2c1`, the survival is inactive: 77%.

In the case of `Cc1cc(C)cc(NC(=O)CCS(=O)(=O)c2ccc3c(c2)oc(=O)n3C)c1`, the survival is inactive: 84%.

For the compound `Cc1ccc(Cl)cc1NC(=O)N1CCc2cc(S(=O)(=O)N3CCC(C)CC3)ccc21`, the survival was inactive: 87%.

For `CCc1ccc2[nH]c(=O)c(CNC3CCCC3)cc2c1`, the survival was inactive: 86%.

For the compound `Cc1cccc(-n2ncc3c(N4CCN(CCO)CC4)ncnc32)c1`, the survival was inactive: 83%.

Turning to `CCOC(=O)CCn1cnc2onc(-c3ccccc3Cl)c2c1=O`, the survival is inactive: 129%.

Take `CCOc1ccccc1NC(=O)C1=C(C)Nc2ncnn2C1c1ccccn1` (stereo not given): the survival was active: 25%.

With `COc1ccc(C2=C(C)C(=O)N(Cc3ccc(C(=O)Nc4ccc(C)c(C)c4)cc3)S2(=O)=O)cc1`, the survival was inactive: 87%.

With `COc1cc(Cl)c(C)cc1NS(=O)(=O)c1c(C)nc2sccn2c1=O`, the survival was active: 64%.
